Experiment [1] has as its target T1, DhaA.WT (Rhodococcus rhodochrous, UniProt P0A3G2). The experiment is described as follows: In vitro binding of Cl-alkanes with functional groups, SDS-PAGE with fluoroimager or HRP-streptavidin. The conditions noted are these: 15 minutes at room temperature. The text has this:
(§1) Then the proteins were resolved on SDS-PAGE.

Experiment [2] concerns the target DhaA.H272F (Rhodococcus rhodochrous, UniProt P0A3G2, H272F). Described as above. The following applies: 15 minutes at room temperature.
Source text: as §1

Experiment [3] addresses T2, DhaA.H272F-Flag (Rhodococcus rhodochrous, UniProt P0A3G2, H272F).
T2 construct: […]; expressed in transfected cells; host or cells: CHO-K1
Format: cell-based. The following applies: 60 minute treatment.

For experiment [4], the target named is T1, DhaA.WT. Description: Hydrolysis of Cl-alkanes, pH-indicator dye (phenol red) assay. Format: biochemical. The text has this:
To study the effect of a point mutation on the activity of DhaA (WT or mutant) hydrolysis of Cl-alkanes, a pH-indicator dye system as described by Holloway et al. (1998) was employed.

The target in experiment [5] is T1, DhaA.WT. Description: HPLC analysis of Cl-alkane hydrolysis. Format: biochemical.

For “N-{2-[2-(6-Chlorohexyloxy)-ethoxy]-ethyl}-tetramethylrhodamine-5-(and -6)-amide”, in experiment [1], the “binding to DhaA.WT” value is “but not to DhaA.WT”. Besides, in experiment [2], the “binding to DhaA.H272F” value was “bound to DhaA.H272F”.
As to `O=C(CCCC[C@@H]1SC[C@@H]2NC(=O)N[C@@H]21)NCCOCCOCCCCCCCl` [biotin-C10H21NO2—Cl], in experiment [1], the “binding to DhaA.WT” value was “but not to DhaA.WT”. Moreover, in experiment [2], the “binding to DhaA.H272F” value is given as “bound to DhaA.H272F”. In addition, in experiment [3], the “fraction of DhaA.H272F-Flag protein expressed in CHO-K1 cells that was labeled” value was “about 80%”. In addition, in experiment [4], the “hydrolysis by DhaA.WT” value is reported as “efficiently hydrolyzed”.
Regarding `O=C(NCCOCCOCCCCCCCl)c1ccc(-c2c3ccc(=O)cc-3oc3cc(O)ccc23)c(C(=O)O)c1` [N-{2-[2-(6-Chlorohexyloxy)-ethoxyl-ethyl}-fluorescein-5-amide], in experiment [5], the “hydrolysis by DhaA.WT (HPLC)” value is “very efficiently hydrolyzed”. Also, the “binding to DhaA.WT” value in experiment [1] is “but not to DhaA.WT”. Further, in experiment [2], the “binding to DhaA.H272F” value is “bound to DhaA.H272F”.

The values above are taken from patent publication US20070087400A1, “Covalent tethering of functional groups to proteins and substrates therefor” (priority 2004, published 2007).
